Results from the supplement of paper PMC3334620.
Whole data set: some 33,000 sequences, median “E-score (-0.5 to 0.5)” near -0.01, cut for the highest 2% near 0.26. This is one part of the list.

Each sequence was assayed against Ste12 (UniProt P13574) (assay: PBM E-score (8-mer binding enrichment) (E-score (-0.5 to 0.5)); higher = stronger / more preferred TF binding; most listed sequences are background and not binding sites). Conditions: protein concentration: 200 nM; construct: GST-DNA-binding domain.
Procedure, shortened: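 E-scores (a modified Wilcoxon-Mann-Whitney statistic) were assigned by the Universal PBM Analysis Suite to every ungapped eight-base word pooled with its reverse complement. The input came from universal all-10-mer Agilent arrays made double-stranded by primer extension and probed with GST-tagged yeast transcription factors at about 100-200 nM. Fluorescent anti-GST detected bound protein, and masliner normalised the scans.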

Sequence	PBM E-score
GAATGTAA	0.201
CGCGCTAA	0.138
AACGGAAT	0.0469
ACAGCCGA	-0.101
AGCCTTTG	-0.0528
ATATGAAT	0.152
AGGCCGGC	0.0607
CCCGTTAG	-0.117
CGGCATAG	0.0435
TATTTTAA	0.301
CCCATCAG	-0.193
ACCCCAGC	0.0339
CCCGACAG	0.0377
ATTACGAA	0.155
ACGCAAAC	0.00476
ACGTCTTC	0.0885
ACCTATGC	-0.0393
CGCGTTAG	-0.00975
ATACGTGA	-0.019
CCCAGCCA	0.0406
ATGTCTAG	-0.0749
CCTCGGTA	-0.119
GATGGTGC	-0.252
AGGTGCTA	-0.0701
ATGAACTA	0.00362

Sequence	PBM E-score
AACGCAAT	0.0574
AAGCATCA	0.0439
ACCACTTC	-0.0724
AGCTGCGC	-0.177
AGGGAAGG	-0.0308
TAAATCTA	0.0908
CCATTCTC	0.0607
ACTTGCGC	0.00294
CGGTGTAG	0.0186
ATAGTACA	-0.00118
CAAAATCA	0.228
CGAGGTCA	-0.00185
GCTCCCGA	-0.0536
CGTATGGC	-0.163
GTCTTGGA	0.0115
CCGCGCCC	0.182
AAGAGTAC	-0.153
AATAGAGC	-0.113
GGCCCGGA	0.0827
TCTCAAGA	0.144
ACATGGGC	-0.00745
TCCGCTAA	-0.0717
ACCCTTCT	-0.111
CGCCGTCA	0.0459
CGCTGTAC	0.113

Sequence	PBM E-score
AACGTAGC	-0.24
ATGACTTA	-0.023
GCTGCTCC	-0.27
CACGGAAG	-0.171
GAGCGCGA	0.215
ATACTCGA	0.0683
CGCGCGCG	0.262
CTGTAGAC	-0.143
TTACACAA	0.248
TCGCTGCA	-0.075
CTGGATTA	0.149
CATCATCG	0.0109
CCACCTAG	-0.0618
ACCAACTA	-0.0231
TCCGGAGA	0.02
AAGACCGC	-0.0921
GAGTGATC	-0.123
ATTTACGA	0.148
ATCTGACC	-0.0146
AGGTCCTC	-0.066
AGCGTGAA	-0.0278
TAGGCAGA	0.128
GCTGGGCA	-0.0541
CGCAACAA	0.0765
GCTTCTAA	-0.149

Sequence	PBM E-score
ATTTCCAG	0.119
CCCATATC	0.00256
CCCTTAAA	-0.0805
ATCGCGGC	-0.034
CCATGCAG	-0.198
ACATTTCT	0.133
AGGGCAAC	-0.107
CACTCAAG	-0.182
AACCGGCA	-0.0027
CGAACGCA	0.0798
GCGCCTCA	-0.0118
CAGGTTGA	0.0426
CCTCCATC	-0.0452
CACATAGG	-0.0914
AAAATAAG	0.183
ATTGCTTC	-0.0681
AAAACAAC	0.154
CTGTAGCA	-0.0934
AATCCATC	-0.00588
GCTTAGAA	0.0751
TCGTTACA	0.151
GGTAGGGA	-0.121
AAGGCCGG	0.0024
GAGGCGAC	-0.201
AGCAACTA	-0.058

Sequence	PBM E-score
CCTTAGTC	-0.212
CAAAGTTA	0.0942
CTGGTTAC	-0.176
ATCTTAAT	0.0667
CAAGCGAA	-0.00054
TCGGCCCA	-0.0576
ATTTGGGG	0.00758
GGCTCGGA	-0.24
CCTCTGTC	-0.167
CACGTAAA	-0.148
AAAAGGAT	-0.0418
GACGTCAC	-0.136
ACCATAAC	0.253
ACTTACAT	-0.0277
AGAAACAC	0.121
CCCGCTAC	0.125
CAACAAGA	0.0401
AGGACCAA	-0.189
AACTCCAA	0.123
CCACCTAC	-0.0276
CATAAAAG	0.0283
AGATAGGA	-0.0551
ACATCGAA	0.0463
AGGAGTAG	-0.0871
CGCCCCAA	0.296

Sequence	PBM E-score
GCTGTCCC	-0.126
CGTTTCTC	0.0338
AGCGTGCC	-0.058
ACTGGCTA	-0.235
CTCAGTAC	-0.136
GAGTTCCA	-0.111
ACCAACAC	-0.0972
CCGTCCAA	-0.0289
GCAGGCAC	-0.188
ACGACCGT	-0.266
AGGATCGC	-0.0641
CGAGTACA	-0.127
ACAGGGGT	-0.0559
AGCAGCAA	0.0764
GGGCGGGA	0.235
AGCGTTTG	0.0524
CGGAGTGC	0.0242
ACTCTTTG	0.00309
CCAACCAC	0.0116
AACTCACA	0.0265
TCGGGCCA	0.0299
CTAAGAAA	0.163
ACTACCCT	0.017
ACCCTTAA	0.0271
AGCTGCAC	-0.0833

Sequence	PBM E-score
GACTCCAC	-0.143
CCCCGTTC	0.0499
AACCGTAC	-0.0952
CACCGAAC	-0.0317
ACGTTAAT	0.0653
CACGCGTG	0.221
TACCCAGA	0.102
CCGATCAG	-0.142
CGTAGTTA	0.0511
ATCGGGAA	0.123
AGCGCACA	-0.0975
GTAATCAC	-0.0282
CCGCTCCA	-0.183
ACCCACCG	0.0713
GATAAGCC	-0.05
CACAATTA	0.0236
ACACGGAC	-0.149
GACCGGTC	0.0572
GTATGTAA	0.189
GACCTTCC	-0.0505
AGGCTCCA	-0.0213
CATATTAG	0.137
